# Source: PubChem BioAssay (Tox21)
# Values joined by “and” are separate entries in the source; they are usually repeats but may differ in a detail not shown here. Equal entries are not always repeated. Inconclusive means that the source gave no clear call. Such entries were picked first, then a sample of the others. For some of these results: Where the call is inconclusive, the potency comes from a doubtful curve fit. More than one record can exist for a structure, and the calls need not agree. Active and inactive are the calls of the source. Unless noted, the call rests on the fitted dose curve; in most records, active means well fitted curve in the direction sought with a large enough effect in the repeat runs; inconclusive means weak or mixed curves; inactive means no such curve, though single readings can be large; an effect the other way counts as inactive or inconclusive.
# Tests used:
# [1] = qHTS assay for identifying genotoxic compounds that show differential cytotoxicity against isogenic chicken DT40 cell lines with known DNA damage response pathways - wild type cell line (AID 743012); details: DT40 wild type chicken cells viability, CellTiter-Glo, 40 h; activity change, negative = cytotoxicity: at 68.4 µM (top of the series) unless noted; further: nearly all actives have a fitted effect of over 60% in size; further: potency means the concentration at half of the fitted maximal effect; on activity change, negative = cytotoxicity: on the % scale 0 is the no-effect control and ±100 the full control effect
# In short: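 First, wild type DT40 cells were plated at 300 per well and equilibrated about 0.5 h at 37 C/5% CO2. Next, compounds in DMSO were added and exposure lasted 40 h. Finally, CellTiter-Glo was added for 30 min at room temperature and luminescence recorded.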
# [2] = qHTS assay for identifying genotoxic compounds that show differential cytotoxicity against isogenic chicken DT40 cell lines with known DNA damage response pathways - Rev3 mutant cell line (AID 743014); details: chicken DT40 Rev3-/- viability, CellTiter-Glo, 40 h; activity, negative = cytotoxicity: at 68.4 µM (top of the series) unless noted; further: potency means the concentration at half of the fitted maximal effect; nearly all actives have a fitted effect of over 55% in size
# [3] = qHTS assay to identify aromatase inhibitors - cell viability counter screen (AID 743084); details: MCF-7 aro ERE viability, CellTiter-Fluor, 24 h; activity change, negative = cytotoxicity: at 70.3 µM (top of the series);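 further: cells stimulated with testosterone during compound exposure; nearly all actives have a fitted effect of over 55% in size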; further: potency means the concentration at half of the fitted maximal effect; on activity change, negative = cytotoxicity: on the % scale 0 is the no-effect control and ±100 the full control effect
# [4] = qHTS assay to identify small molecule antagonists of the estrogen receptor alpha (ER-alpha) signaling pathway using the BG1 cell line (AID 743080; calls by dose curve;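 further: BG1 cells stimulated with 17beta-estradiol alongside compound; nearly all actives have a fitted effect of over 25% in size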; further: potency means the concentration at half of the fitted maximal effect); details: BG1Luc4E2 ERE-luciferase antagonist mode, luminescence; activity change, negative = inhibition: at 70.3 µM (top of the series) unless noted
# In short: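 Seeding, 24 h rest, compound transfer from DMSO, 17beta-estradiol addition, 21.5 h incubation, CellTiter-Fluor (30 min, 37 C), then ONE-Glo (30 min, room temperature): this sequence was run on BG1-Luc-4E2 reporter cells.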
# [5] = qHTS assay to identify small molecule antagonists of the estrogen receptor alpha (ER-alpha) signaling pathway using the BG1 cell line - cell viability counter screen (AID 743081);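 further: compound given together with 17beta-estradiol as the ER stimulus; potency means the concentration at half of the fitted maximal effect; nearly all actives have a fitted effect of over 45% in size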
# [6] = qHTS assay for identifying genotoxic compounds that show differential cytotoxicity against isogenic chicken DT40 cell lines with known DNA damage response pathways - Rad54/Ku70 mutant cell line (AID 743015); details: DT40 Rad54/Ku70 mutant viability, CellTiter-Glo, 40 h; activity change, negative = cytotoxicity: at 66.8 µM (top of the series); further: nearly all actives have a fitted effect of over 60% in size; further: potency means the concentration at half of the fitted maximal effect; on activity change, negative = cytotoxicity: on the % scale 0 is the no-effect control and ±100 the full control effect
# [7] = qHTS assay to identify small molecule antagonists of the thyroid receptor (TR) signaling pathway - cell viability counter screen (AID 743064); details: GH3.TRE-Luc viability, CellTiter-Fluor, 24 h; activity change, negative = cytotoxic: at 70.3 µM (top of the series) unless noted; further: potency means the concentration at half of the fitted maximal effect; nearly all actives have a fitted effect of over 50% in size
# In short: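 In-well cytotoxicity read by CellTiter-Fluor (30 min, 37 C) following 23.5 h exposure of GH3 cells bearing a TRE-luciferase sensor. Compounds were added alongside 1 nM (final) T3 to drive TR transactivation.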
# [8] = qHTS assay to identify small molecule antagonists of the androgen receptor (AR) signaling pathway - cell viability counter screen (AID 743033; further: nearly all actives have a fitted effect of over 45% in size; further: potency means the concentration at half of the fitted maximal effect); details: AR-bla HEK293 viability, CellTiter-Glo luminescence, 16 h; activity change, negative = cytotoxicity: at 58.5 µM (top of the series)
# [9] = target: Androgen receptor (Homo sapiens) (UniProt P10275); experiment: qHTS assay to identify small molecule antagonists of the androgen receptor (AR) signaling pathway (AID 743035; active means well fitted inhibition curve with a large enough effect in the signal ratio in the repeat runs, not every such curve was filed as active; inconclusive means weak or mixed curves, or effect the other way; inactive means no such curve, though single readings can be large or run the other way; the % refers to the signal ratio; further: potency means the concentration at half of the fitted maximal effect); details: HEK293 AR-UAS-bla, R1881-stimulated, beta-lactamase FRET, 16 h; activity change, negative = inhibition: at 58.5 µM (top of the series) unless noted
# Sequence of UniProt P10275 (P10275 whole entry, looked up): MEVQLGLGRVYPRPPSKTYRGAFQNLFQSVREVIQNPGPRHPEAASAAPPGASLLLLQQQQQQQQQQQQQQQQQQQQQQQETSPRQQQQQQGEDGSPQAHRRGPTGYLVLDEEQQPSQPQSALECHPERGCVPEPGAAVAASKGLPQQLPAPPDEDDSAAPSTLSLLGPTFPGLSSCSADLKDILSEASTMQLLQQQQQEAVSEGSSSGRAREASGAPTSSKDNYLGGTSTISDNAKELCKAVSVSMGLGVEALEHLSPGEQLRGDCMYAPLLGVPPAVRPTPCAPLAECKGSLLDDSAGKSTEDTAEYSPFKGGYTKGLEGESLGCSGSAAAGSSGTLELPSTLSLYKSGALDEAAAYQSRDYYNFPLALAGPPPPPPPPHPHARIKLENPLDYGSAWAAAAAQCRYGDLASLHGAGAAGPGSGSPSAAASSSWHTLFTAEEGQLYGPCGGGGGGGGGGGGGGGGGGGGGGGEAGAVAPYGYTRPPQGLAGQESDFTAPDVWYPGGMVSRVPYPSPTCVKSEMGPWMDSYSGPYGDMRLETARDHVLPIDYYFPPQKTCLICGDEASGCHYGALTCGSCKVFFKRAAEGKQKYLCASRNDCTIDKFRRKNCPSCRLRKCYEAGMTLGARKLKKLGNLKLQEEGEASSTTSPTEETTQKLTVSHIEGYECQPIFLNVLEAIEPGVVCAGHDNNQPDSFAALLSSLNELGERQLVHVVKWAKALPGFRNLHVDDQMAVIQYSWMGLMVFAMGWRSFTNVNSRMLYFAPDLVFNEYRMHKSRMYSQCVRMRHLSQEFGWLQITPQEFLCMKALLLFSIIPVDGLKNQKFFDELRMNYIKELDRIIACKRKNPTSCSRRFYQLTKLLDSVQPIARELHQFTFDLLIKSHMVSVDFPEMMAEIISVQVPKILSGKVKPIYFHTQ
# In short: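 Beta-lactamase FRET read (2 h RT incubation with LiveBLAzer B/G) following 16 h of compound plus R1881 treatment of AR-UAS-bla HEK293 cells, which had been pre-incubated 4 h at 37C.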
# [10] = target: Androgen receptor (Homo sapiens) (UniProt P10275); experiment: qHTS assay to identify small molecule agonists of the androgen receptor (AR) signaling pathway (AID 743036; active means well fitted activation curve with a large enough effect in the signal ratio in the repeat runs, with a control signal flat, not every such curve was filed as active; inconclusive means weak or mixed curves, or effect the other way; inactive means no such curve, though single readings can be large or run the other way; the % refers to the signal ratio; further: potency means the concentration at half of the fitted maximal effect); details: HEK293 AR-UAS-bla GripTite, beta-lactamase FRET ratio, 16 h; activation: at 62.4 µM (top of the series) unless noted
# In short: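 Activation was read as beta-lactamase FRET signal from LiveBLAzer B/G substrate, added for 2 h at room temperature. Before that, GeneBLAzer AR-UAS-bla GripTite (HEK293) cells had 16 h compound exposure at 37C.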
# [11] = qHTS assay to identify small molecule antagonists of the androgen receptor (AR) signaling pathway using the MDA cell line - cell viability counter screen (AID 743041; further: nearly all actives have a fitted effect of over 45% in size; further: potency means the concentration at half of the fitted maximal effect); details: MDA-kb2 viability, CellTiter-Fluor, 16 h, cells co-treated with R1881 androgen agonist; viability change, negative = cytotoxic: at 70.3 µM (top of the series) unless noted
# In short: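 Viability counter screen run alongside the AR antagonist reporter: cells seeded 5 h before compound, R1881 added, 16 h incubation at 37C without CO2, fluorescent CellTiter-Fluor signal quantified.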
# [12] = target: Androgen receptor (Homo sapiens) (UniProt P10275); experiment: qHTS assay to identify small molecule antagonists of the androgen receptor (AR) signaling pathway using the MDA cell line (AID 743042; further: potency means the concentration at half of the fitted maximal effect; nearly all actives have a fitted effect of over 55% in size)
# In short: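 MDA-kb2 cells (human breast carcinoma, stably carrying an MMTV-luciferase reporter responsive to AR and GR) were plated at 3,000 cells/well and preincubated 5 hr at 37C, then given compound plus R1881 agonist for 16 h. ONE-Glo luminescence was read.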
# [13] = tested on: thyroid hormone receptor (rat, GH3 cells); experiment: qHTS assay to identify small molecule agonists of the thyroid receptor (TR) signaling pathway (AID 743066; calls by dose curve; further: on the % scale 0 is the no-effect control and ±100 the full control effect); details: GH3.TRE-Luc cells, TR agonist luciferase, 24 h; activation: at 83.9 µM (top of the series) unless noted
# [14] = target: Estrogen receptor (Homo sapiens) (UniProt P03372); experiment: qHTS assay to identify small molecule antagonists of the estrogen receptor alpha (ER-alpha) signaling pathway (AID 743069; active means well fitted curve in the direction sought with a large enough effect in the signal ratio in the repeat runs, not every such curve was filed as active; inconclusive means weak or mixed curves, or effect the other way; inactive means no such curve, though single readings can be large or run the other way; the % refers to the signal ratio; further: potency means the concentration at half of the fitted maximal effect); details: HEK293 ER-alpha-UAS-bla, beta-lactamase ratio, antagonist mode; activity, negative = inhibition: at 69.4 µM (top of the series) unless noted
# Sequence of UniProt P03372 (P03372 whole entry, looked up): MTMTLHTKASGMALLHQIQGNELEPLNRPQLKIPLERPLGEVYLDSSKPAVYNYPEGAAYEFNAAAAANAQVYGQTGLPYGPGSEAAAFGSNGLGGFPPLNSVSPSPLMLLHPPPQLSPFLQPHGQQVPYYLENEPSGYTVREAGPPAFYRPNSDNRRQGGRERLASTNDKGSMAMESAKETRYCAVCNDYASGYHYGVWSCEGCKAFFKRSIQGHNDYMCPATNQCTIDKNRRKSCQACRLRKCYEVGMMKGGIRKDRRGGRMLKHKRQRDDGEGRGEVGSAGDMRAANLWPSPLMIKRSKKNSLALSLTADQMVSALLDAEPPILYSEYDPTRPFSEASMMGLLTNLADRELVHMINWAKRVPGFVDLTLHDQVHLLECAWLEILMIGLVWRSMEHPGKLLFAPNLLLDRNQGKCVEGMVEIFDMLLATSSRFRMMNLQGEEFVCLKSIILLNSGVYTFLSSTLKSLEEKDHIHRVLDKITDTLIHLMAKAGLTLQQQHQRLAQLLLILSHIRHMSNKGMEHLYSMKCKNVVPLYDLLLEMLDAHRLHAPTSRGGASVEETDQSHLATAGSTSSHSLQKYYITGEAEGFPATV
# In short: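 Estradiol-stimulated ER-alpha-UAS-bla HEK293 cells, 18 hr compound exposure at 37C. LiveBLAzer B/G substrate, 2 hr RT, fluorescence read.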
# [15] = qHTS assay to identify small molecule antagonists of the estrogen receptor alpha (ER-alpha) signaling pathway - cell viability counter screen (AID 743074; calls by dose curve;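 further: HEK293 cells carrying ER-alpha-UAS-bla reporter stimulated with 17beta-estradiol; potency means the concentration at half of the fitted maximal effect; nearly all actives have a fitted effect of over 45% in size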)
# [16] = target: Estrogen receptor (Homo sapiens) (UniProt P03372); experiment: qHTS assay to identify small molecule agonists of the estrogen receptor alpha (ER-alpha) signaling pathway using the BG1 cell line (AID 743079); details: BG1Luc4E2 cells, ERE-luciferase agonist, 22 h; activation: at 70.3 µM (top of the series) unless noted; further: nearly all actives have a fitted effect of over 20% in size; further: potency means the concentration at half of the fitted maximal effect
# Aromatase (Homo sapiens) = Aromatase (Homo sapiens) (UniProt P11511); experiment: qHTS assay to identify aromatase inhibitors (AID 743083); further: potency means the concentration at half of the fitted maximal effect; nearly all actives have a fitted effect of over 55% in size
# Sequence of UniProt P11511 (P11511 whole entry, looked up): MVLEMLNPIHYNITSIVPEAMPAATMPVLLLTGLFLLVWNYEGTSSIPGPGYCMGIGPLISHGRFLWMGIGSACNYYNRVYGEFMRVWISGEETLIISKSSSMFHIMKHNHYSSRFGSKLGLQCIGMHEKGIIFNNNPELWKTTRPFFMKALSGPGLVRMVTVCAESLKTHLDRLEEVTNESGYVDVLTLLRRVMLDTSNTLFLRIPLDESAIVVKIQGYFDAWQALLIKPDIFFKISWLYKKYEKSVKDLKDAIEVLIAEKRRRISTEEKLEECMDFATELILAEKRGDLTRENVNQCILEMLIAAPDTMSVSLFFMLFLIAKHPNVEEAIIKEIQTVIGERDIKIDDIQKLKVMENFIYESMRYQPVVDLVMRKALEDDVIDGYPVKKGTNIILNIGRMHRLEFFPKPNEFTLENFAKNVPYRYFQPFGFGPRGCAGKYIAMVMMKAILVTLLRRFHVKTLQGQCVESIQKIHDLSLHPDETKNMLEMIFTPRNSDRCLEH
# [17] = target: Estrogen receptor (Homo sapiens) (UniProt P03372); experiment: qHTS assay to identify small molecule agonists of the estrogen receptor alpha (ER-alpha) signaling pathway (AID 743075; calls by dose curve;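 further: HEK293 GripTite cells with ER-alpha and UAS-driven beta-lactamase reporter; potency means the concentration at half of the fitted maximal effect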)
# [18] = qHTS assay to identify small molecule antagonists of the thyroid receptor (TR) signaling pathway (AID 743065)
# In short: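 GH3.TRE-Luc rat pituitary cells carrying two TR response elements driving luciferase were plated for 4 h, given compound plus 1 nM T3 (final), and incubated 23.5 h at 37 C. ONE-Glo luminescence measured reporter inhibition; CellTiter-Fluor fluorescence tracked cytotoxicity.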
# Tags describe the fitted curve by direction and shape or compound fluorescence and quenching.
compound,measurement,setting,value
CCNc1cc(O)ccc1C,Potency,[1],inactive
same,Potency,[2],"inconclusive: 48 µM [cytotoxic, partial curve, poor fit]"
same,Potency,[3],inactive
Clc1nnc(Cl)c2ccccc12,Potency,[1],"inconclusive: 8.59 µM [rising, single point]"
same,Potency,[2],"inconclusive: 68.2 µM [cytotoxic, single point]"
same,Potency,[4],"inconclusive: 9.64 µM [rising, single point]"
same,Potency,[5],"inconclusive: 54.2 µM [cytotoxic, partial curve, poor fit]"
same,Potency,[3],inactive
c1ccc(SSc2ccccc2)cc1,Potency,[1],"inconclusive: 69.1 µM [cytotoxic, single point]"
same,Potency,[6],"inconclusive: 69.1 µM [cytotoxic, single point]"
CCCCCCOC(=O)C(C)C,Potency,[1],inactive
same,Potency,[6],inactive
same,Potency,[7],"inconclusive: 0.545 µM [rising, single point]"
Fc1ccc([C@@H]2CCNC[C@H]2COc2ccc3c(c2)OCO3)cc1,Potency,[1],active: 3.76 µM
same,Potency,[6],active: 7.5 µM
same,Potency,[8],active: 8.49 µM
same,Potency,[9],active: 13.4 µM
same,activation,[10],inconclusive: 25.1%
same,Potency,[11],active: 18.8 µM
same,Potency,[12],active: 21.1 µM
same,Potency,[7],active: 11.9 µM
same,activation,[13],inconclusive: -9.99% [phenotype inactive]
same,Potency,[14],inconclusive: 26.8 µM [inhibitor]
same,Potency,[15],"inconclusive: 19 µM [cytotoxic, partial curve, poor fit]"
same,Potency,[16],"inconclusive: 33.5 µM [inhibitor, single point]"
same,Potency,[5],"inconclusive: 13.3 µM [cytotoxic, single point]"
same,Potency,Aromatase (Homo sapiens),"inconclusive: 33.5 µM [inhibitor, single point]"
same,Potency,[3],"inconclusive: 33.5 µM [cytotoxic, single point]"
CCOc1ccc(NC(=O)CC(C)O)cc1 (centres undefined),Potency,[1],"inconclusive: 6.94 µM [rising, full curve, poor fit]"
same,Potency,[6],inactive
same,"viability change, negative = cytotoxic",[11],inconclusive: 31.1% [at 95 µM]
same,Potency,[15],"inconclusive: 61.6 µM [cytotoxic, single point]"
CC1(C)[C@@H](O)CC[C@]2(C)[C@H]3C(=O)C=C4[C@@H]5C[C@@](C)(C(=O)O)CC[C@]5(C)CC[C@@]4(C)[C@]3(C)CC[C@@H]12,Potency,[1],"inconclusive: 5.96 µM [cytotoxic, full curve] and inactive"
same,Potency,[6],active: 2.37 µM
same,Potency,[7],active: 29.8 µM and active: 24.1 µM
same,activation,[13],inconclusive: -8.79% [phenotype inactive] and inconclusive: -8.66% [phenotype inactive]
same,Potency,[15],"inconclusive: 48.4 µM [cytotoxic, single point]"
same,Potency,[17],inconclusive: 61 µM [single point]
same,Potency,[4],inactive
Fc1ccccc1[C@@H](F)COC1CCC(Nc2ncnc3[nH]ncc23)CC1 (some centres undefined),Potency,[1],active: 15.4 µM
same,Potency,[8],active: 49 µM
same,Potency,[9],"inconclusive: 3.89 µM [rising, full curve, poor fit]"
same,Potency,[10],"inconclusive: 1.74 µM [rising, full curve]"
same,Potency,[11],"inconclusive: 68.6 µM [cytotoxic, single point]"
same,Potency,[7],"inconclusive: 68.6 µM [cytotoxic, single point]"
same,Potency,[18],active: 48.6 µM
same,activation,[13],inconclusive: -8.91% [phenotype inactive]
CC(C)OC(=O)c1ccccc1C(=O)OC(C)C,Potency,[1],"inconclusive: 68.6 µM [cytotoxic, single point]"
same,Potency,[6],"inconclusive: 68.6 µM [cytotoxic, single point]"
same,Potency,[15],"inconclusive: 0.389 µM [rising, full curve, poor fit]"
CC(C)C(=O)c1c(C(C)C)nn2ccccc12,Potency,[1],"inconclusive: 33.5 µM [cytotoxic, partial curve, poor fit]"
same,Potency,[6],inconclusive: 33.5 µM [cytotoxic]
same,Potency,[15],"inconclusive: 10.7 µM [cytotoxic, single point]"
Nc1ccn([C@@H]2O[C@H](CO)[C@@H](O)C2O)c(=O)n1 (some centres undefined),Potency,[1],active: 298 nM and active: 193 nM
same,Potency,[8],inactive
same,Potency,[7],active: 531 nM and active: 486 nM
same,activation,[13],inconclusive: -6.06% [phenotype inactive]
same,Potency,[14],"inconclusive: 1.34 µM [activator, full curve, poor fit] and inconclusive: 1.95 µM [activator, full curve, poor fit]"
same,Potency,[16],inactive
same,Potency,[4],"inconclusive: 13.3 µM [falling, full curve]"
Nc1nc(Cl)nc2c1ncn2[C@H]1C[C@H](O)[C@@H](CO)O1,Potency,[1],active: 13.3 nM and active: 1.9 nM
same,Potency,[6],active: 21.1 nM and active: 2.7 nM
same,Potency,[7],active: 422 nM and active: 136 nM
same,Potency,[15],"inconclusive: 26.8 µM [rising, partial curve, poor fit]"
